# Measurements reported in the supplement of paper PMC3724861.
# This is one part of the list.
# Test system: T1, Caupolican (Caup) homeodomain DNA-binding domain
# T1 sequence: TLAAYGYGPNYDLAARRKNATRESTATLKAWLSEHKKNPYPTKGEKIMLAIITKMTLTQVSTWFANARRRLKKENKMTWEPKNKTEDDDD
# Test: PBM E-score (8-mer, recovered from the published 9-mer minima) (E-score (dimensionless, -0.5 to 0.5)); Drosophila protein; higher = stronger relative binding preference, active = 0.31 or more
# Summary of the method: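 An enrichment score, with higher meaning stronger, expresses relative binding preference for each short DNA word. The protein used was Caup's homeodomain DNA-binding domain (residues 214-303), produced by in vitro transcription and translation and tested at 100 nM on custom-designed protein binding microarrays. The 8-mer values were recovered from published 9-mer scores, each equal to the lower of its two constituent 8-mer scores.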
row,Sequence,PBM E-score
1,AGTATTCA,inactive: 0.103
2,TCATCCCA,inactive: -0.0872
3,CCAGTAAA,inactive: -0.0129
4,TAATTTCA,≥ 0.174
5,CCTGGGCC,inactive: -0.341
6,AGGCTGCG,inactive: -0.144
7,TACATCCA,inactive: 0.292
8,CGCGGTAC,inactive: -0.0358
9,TCATAAGA,inactive: 0.144
10,ACCGAGTG,inactive: -0.0584
11,AATGCAGC,inactive: -0.135
12,GGGGCATA,inactive: -0.132
13,ACCAAAAG,inactive: 0.0453
14,CCGGATAG,inactive: -0.0618
15,GAGACCGA,inactive: -0.101
16,TCCAAAAA,inactive: 0.0799
17,CAACGTCA,inactive: 0.0536
18,AACGAACA,inactive: 0.305
19,GGCGCCGA,inactive: -0.127
20,AGCCTGCC,inactive: -0.204
21,CCGTCAGG,inactive: -0.168
22,ACTCCTGG,inactive: -0.124
23,CCGATACG,inactive: -0.105
24,AAGACTTC,inactive: -0.0381
25,GACCATGC,inactive: -0.00055

row,Sequence,PBM E-score
1,GTAATGGA,inactive: 0.141
2,TGACTCCA,inactive: -0.0443
3,TTAATAAA,≥ 0.189
4,CATGAACC,inactive: 0.0853
5,CACGTAGC,inactive: -0.141
6,CCCCTAAG,inactive: -0.219
7,CGTTGCCC,inactive: -0.127
8,GAATTGGA,inactive: 0.0706
9,ATAGGCCG,inactive: -0.137
10,CACAGGTC,inactive: -0.0585
11,GTACTTAA,inactive: 0.189
12,ATACAAAC,inactive: 0.27
13,CTAGGAGA,inactive: 0.015
14,CACGTTCG,inactive: -0.0159
15,CGTGGCAG,inactive: -0.152
16,GTTAGGGA,inactive: -0.0714
17,CGCGTGGA,inactive: -0.177
18,ACCACGCG,inactive: -0.106
19,ATAGTGGG,inactive: 0.0287
20,CGTCATTA,inactive: 0.0577
21,ATCATCCC,inactive: -0.0251
22,CGTTTATC,inactive: -0.0316
23,AACCAACA,inactive: 0.177
24,ACTAAACA,inactive: 0.264
25,ATGACGAC,inactive: 0.141

row,Sequence,PBM E-score
1,GTCAACCA,inactive: 0.0944
2,GCCTGACC,inactive: -0.24
3,AGGTGAGC,inactive: -0.0846
4,ACCCCCTG,inactive: -0.205
5,AGTGGTGC,inactive: -0.0854
6,CCGACGAA,inactive: 0.0504
7,CAGTAAGA,inactive: 0.0875
8,ACCGTGGA,inactive: -0.107
9,ACTCACGG,inactive: -0.109
10,AGTGACCG,inactive: -0.144
11,GCCTAGGC,inactive: -0.182
12,CCTGGCTC,inactive: -0.189
13,ACGTCTAG,inactive: 0.0139
14,GATACTTA,inactive: 0.0275
15,CCAATCGA,inactive: -0.00478
16,AGCAGCTA,≥ 0.0345
17,GACACCGA,inactive: 0.142
18,AACATAAG,inactive: 0.268
19,AACCCACC,inactive: -0.108
20,CACTCAGG,inactive: -0.00651
21,ACTGTTTA,inactive: 0.14
22,AAGCCATG,inactive: 0.0293
23,ATGTTAAC,active: 0.377
24,AGTCTCAG,inactive: -0.0464
25,ATCTACTA,≥ 0.131

row,Sequence,PBM E-score
1,GTTGCATA,inactive: 0.101
2,CTTCCAAG,inactive: -0.0467
3,GAGCACAC,inactive: 0.00424
4,CAACTGGG,inactive: -0.137
5,CCCTGTTC,inactive: 0.0938
6,TGGCAGAA,inactive: -0.0527
7,GATCCCCA,inactive: -0.068
8,CGAATCTA,inactive: 0.03
9,AATGCTTA,inactive: 0.0915
10,AAACGAGA,inactive: 0.0722
11,GGGGTCAA,inactive: -0.07
12,AGTGCCTG,inactive: -0.0647
13,GGAAGTCA,inactive: -0.0842
14,AGCATGCC,inactive: -0.0456
15,CACGCTAA,inactive: 0.072
16,CGCCCGCA,inactive: -0.252
17,AGATCGAG,inactive: -0.00642
18,GCCCCCTA,inactive: -0.314
19,CAGTTAAC,inactive: -0.00501
20,GCTGCCCC,inactive: -0.251
21,ACCCATAA,inactive: 0.0412
22,AGGCATGG,inactive: -0.115
23,ATTGAGCG,inactive: 0.0017
24,AATGCATG,inactive: 0.189
25,CGGACTGC,inactive: -0.13

row,Sequence,PBM E-score
1,ATTCGTTA,inactive: 0.091
2,AATCTTGA,inactive: 0.0233
3,ATTTTCCG,inactive: 0.0331
4,CGTAAATA,inactive: 0.156
5,ACTTTCTC,inactive: -0.0817
6,GTCGATCA,inactive: 0.0748
7,GCCCGGTA,inactive: -0.104
8,GGTTTCAA,inactive: -0.0486
9,GCGTTGAA,inactive: -0.0243
10,CCGCGCCA,inactive: -0.296
11,CAGTTGAC,inactive: 0.111
12,AATAGAAC,inactive: 0.132
13,CTAGTAGA,inactive: 0.078
14,CTTGGGAA,inactive: -0.0551
15,CACGGCCC,inactive: -0.119
16,ACACCGTC,inactive: 0.0118
17,AGCGCCCG,inactive: -0.226
18,ACGATGCT,inactive: -0.0533
19,CCTAACCC,inactive: -0.172
20,GTCAGGAC,inactive: -0.0429
21,AACTAGAA,inactive: 0.142
22,GCCTTAGC,inactive: -0.148
23,GTGGTCTA,inactive: -0.144
24,GATGTCCC,inactive: 0.0951
25,ATTTTCGA,inactive: 0.0227

row,Sequence,PBM E-score
1,AAGATTAG,inactive: 0.073
2,AAACTCCC,inactive: -0.183
3,ATATGGAC,inactive: 0.0807
4,CCCATTCC,inactive: -0.138
5,CTTCAACC,inactive: 0.0105
6,GCAGGCCC,inactive: -0.267
7,GGGTAGAA,inactive: -0.0384
8,ATGAAATA,inactive: 0.149
9,GGGAGTAC,inactive: -0.0407
10,ATCCATAC,inactive: 0.142
11,ACCCAACG,inactive: -0.0688
12,AATCGCTA,inactive: 0.0699
13,CCTAAAGC,inactive: -0.0933
14,TGAACTCA,inactive: 0.0355
15,GCCCTGAA,inactive: -0.103
16,CAGATATA,inactive: 0.12
17,CACGCTCC,inactive: -0.15
18,CGAATCCG,inactive: 0.0709
19,ATAGTCAT,inactive: 0.162
20,AAAAGCCT,inactive: -0.0858
21,CCCCCCCG,inactive: -0.355
22,ATTCGCGA,inactive: -0.00018
23,AATCCTTA,inactive: 0.0952
24,CCTTTAAC,inactive: -0.00777
25,AGCCTTTC,inactive: -0.163

row,Sequence,PBM E-score
1,GAAGTCAA,inactive: -0.0438
2,ATTCAACA,inactive: 0.192
3,AGCCTCCC,inactive: -0.211
4,ATACACTA,inactive: 0.194
5,CCGACTGA,inactive: -0.125
6,CACACTCA,inactive: 0.0177
7,CCGACGCC,inactive: -0.149
8,AATAGGGT,≥ 0.0597
9,CCCGGGCC,inactive: -0.329
10,ATGTGGCG,inactive: -0.0334
11,GTGTATAA,inactive: 0.202
12,GCCCTCGC,inactive: -0.235
13,ACAGTACA,active: 0.331
14,AATTGTCC,inactive: 0.0852
15,CCTGATTA,inactive: 0.0929
16,AGATCGGA,inactive: 0.0416
17,CCGCACAC,inactive: -0.0785
18,CAAGTATG,inactive: 0.152
19,TCGAGCGA,inactive: -0.044
20,ACACAAAG,inactive: 0.167
21,GAATAGCA,inactive: 0.135
22,GTAGTTTA,inactive: 0.247
23,CCTTTTTC,inactive: -0.0349
24,CCTGTCGC,inactive: -0.00281
25,AGAATTCT,inactive: 0.0296

row,Sequence,PBM E-score
1,ATGTCTGG,inactive: 0.171
2,AGGGAATG,inactive: -0.0419
3,AGACTTTA,inactive: -0.0334
4,GAAATCTA,inactive: 0.0134
5,AGCACAGA,≥ 0.0685
6,AGACAGTG,inactive: -0.00148
7,ACTTGAGG,inactive: -0.0564
8,GCTGCACA,inactive: -0.0219
9,ACCTAACA,inactive: 0.19
10,CAAGGACG,inactive: -0.0604
11,GAAACGAC,inactive: 0.0754
12,ACCCCGTA,≥ -0.0587
13,AAAAAAAC,inactive: 0.0868
14,CCGACCCA,inactive: -0.2
15,GACTGTGC,inactive: -0.0552
16,CCCCTGCG,inactive: -0.245
17,CAAAGGCC,inactive: -0.129
18,ACGGGCCA,inactive: -0.114
19,CGCCGGCA,inactive: -0.176
20,ACTGAACG,inactive: 0.0197
21,GTGACAGA,inactive: 0.138
22,ACGCTGGC,≥ -0.0853
23,AAGTACGC,inactive: -0.051
24,TTATGCAA,inactive: 0.0735
25,ATTGTACA,active: 0.417

row,Sequence,PBM E-score
1,CTTGAGGC,inactive: -0.197
2,AACAGTAC,inactive: 0.222
3,GTTTTTCA,inactive: 0.0316
4,CTCCTTAC,inactive: 0.0979
5,AGCGTCCT,inactive: -0.0748
6,AGTTCCGC,inactive: -0.114
7,ACGAGGAT,inactive: 0.063
8,ACATTAAC,inactive: 0.256
9,GGTCCTTA,inactive: -0.093
10,AGATTCCG,inactive: 0.00937
11,ACTGCTCA,inactive: -0.0173
12,CCCTCTTC,inactive: -0.206
13,ATTCCCAA,inactive: 0.0651
14,GCGGGCCC,inactive: -0.315
15,ATCCAAAT,≥ 0.151
16,TGACTCAA,inactive: 0.0741
17,ATCGCATA,inactive: 0.1
18,GAAAACCA,inactive: -0.0924
19,ATGGGATA,inactive: 0.063
20,GACGAACA,inactive: 0.174
21,ATTCAAGA,inactive: 0.0729
22,AGTTGGGG,inactive: -0.151
23,CCAGGCCG,inactive: -0.222
24,AGAGAGCT,inactive: -0.18
